Test results as given in the antibiotic and cytotoxicity screens of Wong et al. (2023).
The list shows a part of the results.

Legend:
HSkMC = human skeletal muscle cells; test: cytotoxicity call (relative viability < 0.9); details: 10 µM
S. aureus RN4220 = test: growth inhibition call (relative growth <= 0.2); details: 50 µM

Structure (SMILES) | cytotoxicity call (HSkMC) | growth inhibition call (S. aureus RN4220)
COc1ccc(CN(C)C[C@H]2OCCCC[C@@H](C)Oc3ccc(NC(=O)c4ccncc4)cc3C(=O)N([C@@H](C)CO)C[C@@H]2C)cc1 | inactive | inactive
C[C@H]1CCCCO[C@H](CN(C)S(=O)(=O)c2cn(C)cn2)[C@@H](C)CN([C@@H](C)CO)C(=O)c2cc(NC(=O)Nc3ccc(C(F)(F)F)cc3)ccc2O1 | inactive | inactive
CC(=O)Nc1ncc(CN2CCOCC2)s1 | inactive | inactive
COc1cccc(CN(C)C[C@@H]2OCc3ccccc3-c3c(n(C)c4ccccc34)C(=O)N([C@H](C)CO)C[C@H]2C)c1 | inactive | inactive
C[C@@H]1CCCCO[C@@H](CN(C)C(=O)C2CCCCC2)[C@H](C)CN([C@H](C)CO)C(=O)c2cc(NS(=O)(=O)c3cccs3)ccc2O1 | inactive | inactive
CC(=O)NCCCC[C@@H]1NC(=O)[C@@H]2C[C@H](C(=O)NCCCCCNC(=O)CS)[C@H](c3cccc(OCCO)c3)N2C1=O | inactive | inactive
Nc1nnc(N)c2ccccc12 | inactive | inactive
COc1ccc(C#Cc2cccc(-c3nc(C(=O)N4CCN(Cc5ccccc5)CC4)cc4c3[C@@H](CCO)N(S(=O)C(C)(C)C)C4)c2)cc1OC (stereo partly specified) | inactive | inactive
C[C@H]1CN([C@@H](C)CO)C(=O)Cc2cc(NC(=O)Nc3ccc(C(F)(F)F)cc3)ccc2O[C@@H]1CN(C)C(=O)Nc1ccc(C(F)(F)F)cc1 | inactive | inactive
C[C@@H]1CN([C@@H](C)CO)C(=O)c2cccc(NC(=O)Nc3ccc(F)cc3)c2O[C@H]1CN(C)C(=O)Nc1ccc(C(F)(F)F)cc1 | inactive | inactive
C[C@H](CO)N1C[C@H](C)[C@H](CN(C)C(=O)Nc2ccc(F)cc2)Oc2c(NS(=O)(=O)c3cn(C)cn3)cccc2C1=O | inactive | inactive
C[C@H](CO)N1C[C@H](C)[C@@H](CN(C)C(=O)NC2CCCCC2)OCCCC[C@H](C)Oc2ccc(NS(=O)(=O)c3ccc(F)cc3)cc2C1=O | inactive | inactive
C[C@@H]1CN([C@H](C)CO)C(=O)CCCn2cc(nn2)CO[C@H]1CN(C)Cc1cccc2c1OCCCO2 | inactive | inactive
C[C@@H]1CN([C@@H](C)CO)C(=O)c2cc(NC(=O)Nc3cccc4ccccc34)ccc2O[C@@H](C)CCCCO[C@@H]1CN(C)S(=O)(=O)c1ccc(Cl)cc1 | inactive | inactive
C[C@@H]1CN([C@@H](C)CO)C(=O)c2cc(-c3cncnc3)cnc2O[C@H]1CN(C)C(=O)Nc1ccc2c(c1)OCO2 | inactive | inactive
O=C(C[C@H]1C[C@H]2c3cc(NS(=O)(=O)c4ccc(F)cc4)ccc3O[C@H]2[C@H](CO)O1)NCc1cccc(F)c1 | inactive | inactive
O=C(N/N=C/[C@H](O)[C@@H](O)[C@H](O)[C@H](O)CO)c1ccccn1 | inactive | inactive
COc1ccc(NC(=O)Nc2ccc3c(c2)C(=O)N([C@@H](C)CO)C[C@@H](C)[C@H](CN(C)Cc2ccc(C(F)(F)F)cc2)OCCCC[C@H](C)O3)cc1 | inactive | inactive
COc1ccc(NC(=O)Nc2ccc3c(c2)C(=O)N([C@@H](C)CO)C[C@@H](C)[C@@H](CN(C)Cc2ccc4c(c2)OCO4)OCCCC[C@@H](C)O3)cc1 | inactive | inactive
O=C(O)c1cc2ccc(O)c(=O)c-2c(O)c(O)c1 | inactive | inactive

Structure (SMILES) | cytotoxicity call (HSkMC) | growth inhibition call (S. aureus RN4220)
CC(C)Sc1n[nH]c(=O)[nH]c1=O | inactive | inactive
CCC(CCC(C)C1CCC2C3CCC4CC(O)CCC4(C)C3CCC12C)C(C)C (stereo unspecified) | inactive | inactive
CC(C)NC(=O)N[C@H]1C=C[C@H](CC(=O)NCCCN(C)C)O[C@@H]1CO | inactive | inactive
C[C@H](CO)N1C[C@H](C)[C@@H](CN(C)Cc2ccccc2)Oc2cc(C#CC(C)(C)O)ccc2S1(=O)=O | inactive | inactive
Cc1noc(C)c1NC(=O)N(C)C[C@@H]1Oc2ccc(NC(=O)CCN3CCOCC3)cc2C(=O)N([C@@H](C)CO)C[C@H]1C | inactive | inactive
CO[C@H]1CN(C)C(=O)c2cc(NS(=O)(=O)c3ccccc3)ccc2OC[C@H](C)N(C(=O)NC(C)C)C[C@@H]1C | inactive | inactive
C[C@H]1CN([C@@H](C)CO)C(=O)c2cccc(NC(=O)Nc3ccc(C(F)(F)F)cc3)c2O[C@@H]1CN(C)Cc1ccc(C(=O)Nc2ccccc2N)cc1 | inactive | inactive
O=C(C[C@H]1C[C@H]2c3cc(NS(=O)(=O)c4ccc(F)cc4)ccc3O[C@H]2[C@@H](CO)O1)NCc1ccc(Oc2ccccc2)cc1 | active | inactive
Cc1ccc(S(=O)(=O)N(C)C[C@@H]2OCCCC[C@H](C)Oc3ccc(NC(=O)Nc4ccc(C(F)(F)F)cc4)cc3C(=O)N([C@H](C)CO)C[C@@H]2C)cc1 | inactive | inactive
C=CCN1C(=O)[C@@]2(O[C@H](CCOC(=O)NCCCCCC(=O)NO)[C@@H]([Si](C)(C)c3ccc(OC)cc3)[C@@H]2C)c2cc(I)ccc21 | inactive | inactive
C[C@@H]1CCCCO[C@H](CN(C)C(=O)NC2CCCCC2)[C@H](C)CN([C@@H](C)CO)C(=O)c2cc(NS(=O)(=O)c3ccc(Cl)cc3)ccc2O1 | inactive | inactive
C[C@@H]1CCCCO[C@@H](CN(C)S(=O)(=O)c2cccs2)[C@@H](C)CN([C@H](C)CO)C(=O)c2cc(NC(=O)CCC(F)(F)F)ccc2O1 | inactive | inactive
COc1ccc(NC(=O)Nc2ccc3c(c2)C(=O)N([C@@H](C)CO)C[C@H](C)[C@H](CN(C)C(=O)C2CCCCC2)OCCCC[C@@H](C)O3)cc1 | inactive | inactive
COc1cc2nc(N3CCCN(Cc4ccccc4)CC3)nc(NC3CCN(Cc4ccccc4)CC3)c2cc1OC | inactive | inactive
Cn1cnc(S(=O)(=O)N[C@@H]2C=C[C@@H](CC(=O)NCC3CC3)O[C@H]2CO)c1 | inactive | inactive
CCCCC(CC)COC(=O)C=Cc1ccc(OC)cc1 (stereo unspecified) | inactive | inactive
CCOc1cc(OCC)cc(C(=O)N[C@@H](Cc2ccc(-n3cc(CCC(=O)NO)nn3)cc2)C(=O)OC)c1 | inactive | inactive
C[C@H](CO)N1C[C@H](C)[C@@H](CN(C)Cc2ccc(Oc3ccccc3)cc2)Oc2c(NC(=O)C3CC3)cccc2C1=O | inactive | inactive
COc1ccc(NC(=O)N(C)C[C@H]2Oc3ncc(C#C[C@H](C)O)cc3C(=O)N([C@@H](C)CO)C[C@H]2C)cc1 | inactive | inactive
C[C@@H]1CN([C@H](C)CO)C(=O)c2cccc(NS(=O)(=O)c3ccc(Cl)cc3)c2O[C@@H]1CN(C)Cc1ccc(C(=O)Nc2ccccc2N)cc1 | inactive | inactive

Structure (SMILES) | cytotoxicity call (HSkMC) | growth inhibition call (S. aureus RN4220)
COCC(=O)Nc1ccc2c(c1)C(=O)N(C)C[C@@H](OC)[C@H](C)CN(Cc1ccccc1OC)[C@H](C)CO2 | inactive | inactive
C[C@H]1CCCCO[C@H](CN(C)C(=O)Nc2ccc(C(F)(F)F)cc2)[C@@H](C)CN([C@@H](C)CO)C(=O)c2cc(NC(=O)c3ccccc3)ccc2O1 | inactive | inactive
Cn1nc(CN2CCCC2=O)c2c1CNC2 | inactive | inactive
CN(C)CCCCNC(=O)[C@@H]1C[C@@H]2C(=O)N[C@@H](CCCC[N+](C)(C)C)C(=O)N2[C@@H]1c1cccc(OCCO)c1 | inactive | inactive
C[C@@H]1CN([C@@H](C)CO)C(=O)c2c(c3ccccc3n2C)-c2ccccc2CO[C@H]1CN(C)S(C)(=O)=O | inactive | inactive
COc1cccc(S(=O)(=O)Nc2ccc3c(c2)[C@H]2C[C@H](CC(=O)N4CCCCC4)O[C@H](CO)[C@H]2O3)c1 | inactive | inactive
CO[C@H]1CN(C)C(=O)c2cc(NC(=O)C3CC3)ccc2OC[C@@H](C)N(C(=O)CN2CCOCC2)C[C@@H]1C | inactive | inactive
CN(C)C(=O)c1ccc(-c2ccc3n(c2=O)C[C@H]2[C@H](CO)[C@@H](C(=O)NCCc4ccccc4)N[C@@H]32)cc1 | inactive | inactive
C[C@@H]1CCCCO[C@H](CN(C)Cc2ccc(C(=O)O)cc2)[C@H](C)CN([C@@H](C)CO)C(=O)c2cc(NC(=O)Nc3ccc(F)cc3)ccc2O1 | inactive | inactive
COc1ccccc1S(=O)(=O)N(C)C[C@@H]1Oc2c(NC(=O)Nc3cccc4ccccc34)cccc2C(=O)N([C@@H](C)CO)C[C@H]1C | inactive | inactive
C[C@H]1CCCCO[C@H](CN(C)C(=O)Nc2ccc(C(F)(F)F)cc2)[C@@H](C)CN([C@@H](C)CO)C(=O)c2cc(NS(=O)(=O)c3ccc(Cl)cc3)ccc2O1 | inactive | inactive
C[C@H](CO)N1C[C@H](C)[C@@H](CN(C)C(=O)Nc2ccc(C(F)(F)F)cc2)OCCCC[C@H](C)Oc2ccc(NC(=O)Nc3ccc(F)cc3)cc2C1=O | inactive | inactive
Cc1ccc(S(=O)(=O)Nc2ccc3c(c2)C(=O)N([C@H](C)CO)C[C@H](C)[C@@H](CN(C)Cc2ccc(Oc4ccccc4)cc2)O3)cc1 | inactive | inactive
C[C@H]1CN([C@@H](C)CO)C(=O)c2cc(NC(=O)Cn3cnnn3)ccc2O[C@H]1CN(C)CC1CCCCC1 | inactive | inactive
CN1CCN(C(=O)C[C@H]2CC[C@@H]3[C@H](COC[C@H](O)CN3S(=O)(=O)c3cccc(Cl)c3)O2)CC1 | inactive | inactive
COc1ccc(CNC(=O)C[C@H]2C[C@H]3c4cc(NS(=O)(=O)c5ccc(F)cc5)ccc4O[C@H]3[C@H](CO)O2)cc1 | inactive | inactive
O=C(N[C@@H]1C=C[C@H](CC(=O)N2CCOCC2)O[C@@H]1CO)c1ccc2c(c1)OCO2 | inactive | inactive
CCCNC(=O)N(C)C[C@@H]1Oc2cc(-c3ccc(C)cc3)ccc2S(=O)(=O)N([C@H](C)CO)C[C@@H]1C | inactive | inactive
